Test results: PubChem BioAssay AID504332 (National Center for Advancing Translational Sciences (NCATS), 2011)
About 31,000 (8.9%) of roughly 350,000 compounds were called active. This list was built around the results that the source calls inconclusive (neither active nor inactive); the mix of calls is not that of the screen. Calls come from the whole dose curve; as a rule, active = well fitted inhibition curve with a large enough effect; inconclusive = small, poorly fitted or top-dose-only effect; inactive = no such curve, though single readings can be large or run the other way. Potencies beside an inconclusive call are fits to weak or partial responses and may not hold up.

target: Histone-lysine N-methyltransferase EHMT2 (Homo sapiens) (UniProt Q96KQ7); experiment: qHTS Assay for Inhibitors of Histone Lysine Methyltransferase G9a; details: G9a H3K9 monomethylation, AlphaScreen, 2 h; series mostly up to 59 µM; note: nearly all actives have a fitted effect of over 75% in size
Sequence of UniProt Q96KQ7 (Q96KQ7 whole entry, looked up): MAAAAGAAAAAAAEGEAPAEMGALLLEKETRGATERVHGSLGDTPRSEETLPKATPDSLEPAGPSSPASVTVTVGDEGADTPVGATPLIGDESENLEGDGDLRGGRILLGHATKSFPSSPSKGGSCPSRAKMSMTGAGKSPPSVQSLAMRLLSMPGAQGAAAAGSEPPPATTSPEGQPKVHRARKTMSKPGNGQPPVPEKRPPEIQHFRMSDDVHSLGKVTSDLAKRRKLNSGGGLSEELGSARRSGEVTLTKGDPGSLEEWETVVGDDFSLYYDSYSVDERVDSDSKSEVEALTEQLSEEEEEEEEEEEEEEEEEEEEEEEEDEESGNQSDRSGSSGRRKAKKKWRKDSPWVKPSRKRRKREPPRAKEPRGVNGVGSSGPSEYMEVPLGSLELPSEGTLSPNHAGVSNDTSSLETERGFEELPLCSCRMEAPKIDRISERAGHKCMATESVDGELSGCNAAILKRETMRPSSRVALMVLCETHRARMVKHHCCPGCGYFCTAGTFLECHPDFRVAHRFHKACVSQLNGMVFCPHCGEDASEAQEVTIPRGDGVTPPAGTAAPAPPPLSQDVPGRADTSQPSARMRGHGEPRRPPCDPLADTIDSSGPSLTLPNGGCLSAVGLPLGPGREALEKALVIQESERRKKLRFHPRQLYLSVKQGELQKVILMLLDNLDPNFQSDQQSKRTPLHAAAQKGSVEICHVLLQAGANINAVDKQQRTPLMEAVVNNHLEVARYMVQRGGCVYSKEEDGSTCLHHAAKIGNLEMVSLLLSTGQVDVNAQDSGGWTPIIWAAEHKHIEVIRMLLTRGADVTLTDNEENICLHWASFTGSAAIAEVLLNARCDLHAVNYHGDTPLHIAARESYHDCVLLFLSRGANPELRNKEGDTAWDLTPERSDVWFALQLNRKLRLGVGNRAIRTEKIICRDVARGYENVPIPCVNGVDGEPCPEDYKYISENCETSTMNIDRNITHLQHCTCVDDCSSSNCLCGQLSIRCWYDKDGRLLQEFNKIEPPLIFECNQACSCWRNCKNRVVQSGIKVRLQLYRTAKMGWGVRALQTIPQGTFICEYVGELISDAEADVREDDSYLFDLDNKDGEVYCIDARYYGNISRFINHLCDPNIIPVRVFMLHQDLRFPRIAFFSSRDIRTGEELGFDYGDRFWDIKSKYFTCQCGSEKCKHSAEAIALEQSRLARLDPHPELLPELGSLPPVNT
Outline: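 Using a bead-based AlphaScreen, monomethylated H3K9 product from 2 h room-temperature reactions (G9a 20 nM, peptide 500 nM, SAM 20 uM) was detected with 0.5 ug/mL rabbit anti-H3K9me1 antibody.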
Potency is the fitted concentration of half-maximal effect; tags give direction and shape of the fitted curve.

| SMILES | Potency |
| --- | --- |
| CCc1ccc(NC(=O)CNCc2ccc(OC)c(OC)c2)cc1 | inactive |
| Cc1cc(C(F)F)nn1CC(=O)NC1C(=O)N2C(C(=O)O)=C(CSc3nnnn3C)CSC12 (centres undefined) | active: 35.5 µM |
| Cc1cc(C)c(S(=O)(=O)Nc2cccc(-c3cn4ccccc4n3)c2)c(C)c1 | inactive |
| Cc1ccc(CCNC(=O)CCc2nc3ccccc3[nH]2)cc1 | inactive |
| Cc1ccc2c(c1)c(C)cc[n+]2Cc1ccccc1 | active: 50.1 µM |
| COc1ccc(NC(=O)/C(Cl)=C(/Cl)S(=O)Cc2ccc(Cl)cc2)cn1 (centres undefined) | active: 11.2 µM |
| CCC(=O)NC(c1cccc([N+](=O)[O-])c1)c1c(OC(C)=O)ccc2ccccc12 (centres undefined) | inconclusive: 25.1 µM [inhibitor, single point] |
| CNS(=O)(=O)c1cccc(C(=O)OCC(=O)C23CC4CC(CC(C4)C2)C3)c1 | inconclusive: 70.8 µM [inhibitor, partial curve, poor fit] |
| Cc1ccc(-c2nnc(Nc3ccc(O)cc3)c3ccccc23)cc1S(=O)(=O)NCC1CCCO1 (centres undefined) | inactive |
| NCCCC[C@@H]1NC(=O)c2cc([N+](=O)[O-])cc(F)c2NCCCC[C@@H](C(N)=O)NC(=O)CNC1=O | inactive |
| O=C(/C=C/c1ccco1)Nc1ccc(Cl)c(-c2nc3cc(Cl)ccc3o2)c1 | inactive |
| CN1C(=O)/C(=C\c2ccncc2)SC1=Nc1ccccc1 | inconclusive: 89.1 µM [inhibitor, single point] |
| CCCCOC(=O)Nc1ccc(S(=O)(=O)Nc2ccc([N+](=O)[O-])cc2)cc1 | inconclusive: 50.1 µM [inhibitor, partial curve, poor fit] |
| Cc1c(NC(=S)N/C(=N/S(=O)(=O)c2ccccc2)c2ccccc2)c(=O)n(-c2ccccc2)n1C | inconclusive: 50.1 µM [inhibitor, partial curve, poor fit] |
| Cc1cc(C(=O)CN2C(=O)C(=O)N(Cc3ccccc3)C2=O)c(C)n1-c1ccc2c(c1)OCCO2 | inconclusive: 44.7 µM [inhibitor, partial curve] |
| Cc1ccc(N/N=C(\C#N)C(=N)N2CCCCC2)cc1 | inconclusive: 56.2 µM [inhibitor, partial curve] |
| COc1ccc(Br)cc1S(=O)(=O)NCCCN1CCOCC1 | inconclusive: 25.1 µM [inhibitor, partial curve, poor fit] |
| Cc1ccc(C)c(N2CCN(C(=O)COc3cc(=O)n(C)c4ccccc34)CC2)c1 | inconclusive: 79.4 µM [inhibitor, single point] |
| O=C(c1ccc(F)cc1)N1CCC(O)(c2cccnc2)CC1 | inactive |
